Experimental data: ChEMBL document CHEMBL1156829
Over roughly 5,400 compounds, “IFI” has its median near 2; the highest 2% begin near 22. This is one part of the list.

Experiment: NOVARTIS: Inhibition Frequency Index (IFI) - the number of HTS assays where a compound showed > 50% inhibition/induction, expressed as a percentage of the number of assays in which the compound was tested.
Format: functional
Compound `Nc1ccc2nc(-c3cccc(-c4nc5ccc(N)cc5s4)c3)sc2c1` has an IFI of 11.9%. Work on `C=CCNC(=S)N1CCN(c2ccc([N+](=O)[O-])cc2)CC1` yielded an IFI of 0%. Work on `O=C(NNc1c2ccccc2nc2ccccc12)Nc1ccccc1` yielded an IFI of 7.69%. `COc1ccc(C2=C(c3ccc(OC)cc3)C3(c4ccccc4)C(=O)C2(c2ccccc2)C2C(=O)N(c4ccc(F)cc4)C(=O)C23)cc1` (stereo unspecified) gave an IFI of 0%. In the case of `CC1CCN(S(=O)(=O)c2ccc(C(=O)Nc3sc4c(c3C(N)=O)CCN(C)C4)cc2)CC1`, the IFI is reported as 0%. Compound `COc1ccc2nc(NC(N)=NC(=O)Nc3ccccc3)nc(C)c2c1` has an IFI of 6.45%. Compound `Cc1cc(Nc2ccc(Br)cc2)nc2ccccc12` has an IFI of 7.58%. In the case of `Clc1ccccc1CN1CCc2nc(N3CCCCC3)sc2C1`, the IFI is reported as 6.94%. Compound `Cc1cc(C)c(S(=O)(=O)NCc2ccc(Cl)cc2)c(C)c1` has an IFI of 0%. With `Cn1nc(C(F)(F)F)c(-c2ccc(F)cc2)c1NC(=O)Nc1ccccc1` the IFI was 4.17%. Work on `COCCOC(=O)C1=C(C)NC2=C(C(=O)CC(c3ccc(OC)c(OC)c3)C2)C1c1ccccc1Cl` (stereo unspecified) yielded an IFI of 2.33%. For `O=C1C(N2CCCCC2)=C(N2CCCCC2)C(=O)c2ccccc21`, the IFI was 0%. Compound `CC(=O)Nc1ccc(S(=O)(=O)N2CCC(c3nc(-c4cccnc4)no3)CC2)cc1` has an IFI of 15.8%. In the case of `CC1=C(CC(=O)c2ccccc2)C(=O)c2ccccc2C1=O`, the IFI is reported as 7.41%. `CN(C)CCNC(=O)c1c[nH]c2ccc(S(=O)(=O)N3CCc4ccccc43)cc2c1=O` gave an IFI of 0%. In the case of `CC(C)(C)NCC(O)COc1cccc2oc3ccccc3c12` (stereo unspecified), the IFI is reported as 7.69%. `CC1(C)N=C(N)N=C(N)N1c1ccc(I)cc1` gave an IFI of 5.97%. In the case of `COc1ccc2oc(=O)c(C(=O)N(C)c3ccc(S(N)(=O)=O)cc3)cc2c1`, the IFI is reported as 0%. In the case of `COc1ccc2[nH]c3ccccc3c(=O)c2c1`, the IFI is reported as 4.44%. In the case of `COc1cc2nc(Nc3cccc(F)c3)nc(N)c2cc1OC`, the IFI is reported as 6.25%. Compound `O=C(Nc1ccccc1F)NC1CC2CCCC(C1)N2CCc1ccccc1` (stereo unspecified) has an IFI of 1.3%. In the case of `COc1cccc(C(Nc2cc(C)ccn2)c2ccc3cccnc3c2O)c1` (stereo unspecified), the IFI is reported as 21.4%. `COc1ccc(-n2nc(C(C)(C)C)cc2NC(=O)CN(C(=O)c2ccc(C(C)(C)C)cc2)C(C)C)cc1` gave an IFI of 1.87%. `Cc1ccnc(NC(c2ccc(Cl)cc2Cl)c2ccc3cccnc3c2O)c1` (stereo unspecified) showed an IFI of 15.4%. For `CN(Cc1cc(-c2ccc(F)cc2)ccc1O)CC(O)c1ccccc1` (stereo unspecified), the IFI was 0.855%. With `c1ccc(-c2nc3cc4nc(-c5ccccc5)[nH]c4cc3[nH]2)cc1` the IFI was 8.87%. For `OC(CNC1CCN(Cc2ccccc2)CC1)COc1ccc(Br)cc1` (stereo unspecified), the IFI was 0.826%. `CC[n+]1c(/C=C/N(C)c2ccccc2)n(-c2ccccc2)c2ccc(-c3nc4ccccc4s3)cc21` showed an IFI of 29.2%. Compound `COc1cc(NC(C)CCCN(Cc2ccccc2OC)C(=O)Nc2ccccc2OC)c2ncccc2c1` (stereo unspecified) has an IFI of 1.89%. Work on `COc1ccccc1NC(=O)N(Cc1ccccc1)C(C)c1nc2ccccc2c(=O)n1-c1cc(C)ccc1C` (stereo unspecified) yielded an IFI of 3.77%. For `O=C1CCC(c2ccc(Cl)c(Cl)c2)c2ccc(O)cc21` (stereo unspecified), the IFI was 0%. For `N#Cc1ccccc1N1CCCCC1`, the IFI was 4.63%. With `CCOC(=O)c1c(C)nc2c(c1C)c(=O)oc1ccccc12` the IFI was 3.03%. In the case of `O=C(/C=C/Nc1ccccc1NS(=O)(=O)c1ccc([N+](=O)[O-])cc1)c1ccccc1`, the IFI is reported as 1.18%. Compound `N=c1c2c(n(Cc3ccccc3)c3c1CCC3)CCC2` has an IFI of 4.54%. `CC(C)N(CC(=O)Nc1cc(C(C)(C)C)nn1-c1ccc(Cl)c(Cl)c1)C(=O)c1ccc(C(F)(F)F)cc1` gave an IFI of 1.91%. Compound `COC(=O)c1ccc(NC(=O)CSc2nc3cc4c(cc3cc2C#N)OCCO4)cc1` has an IFI of 0%. `CN1CCN(c2ccc(Nc3ccnc4ccccc34)cc2)CC1` gave an IFI of 7.69%. With `CCCCCN(C(=O)c1ccc2ccccc2c1)C(CC)c1nc2ccccc2c(=O)n1-c1ccccc1OC` (stereo unspecified) the IFI was 2.78%. In the case of `Cc1ccc(S(=O)(=O)N=C2C=C(Sc3nnc[nH]3)C(=O)c3ccccc32)cc1`, the IFI is reported as 25%. `CCOC(=O)c1cnc2ccc3c(c(C)c(C)n3C)c2c1O` gave an IFI of 0%. `O=C1/C(=N\c2cccc(O)c2)C(N2CCCCC2)=C(O)c2ccccc21` showed an IFI of 0%. Work on `Cc1cc(Oc2ncnc(N(C)CC(=O)OC(C)(C)C)c2[N+](=O)[O-])c2nncn2n1` yielded an IFI of 7.14%. For `COC(=O)C1C(=O)C2=C(CC1C)NC(=O)CC2c1cccc(Cl)c1Cl` (stereo unspecified), the IFI was 0%. `CN1C(=O)N(C)C2(c3ccccc3)NN3C(=NC12c1ccccc1)SC1=C3C(=O)c2ccccc2C1=O` (stereo unspecified) gave an IFI of 4.44%. `Nc1nc(N)c2c(OCc3ccc(C(F)(F)F)cc3)cccc2n1` showed an IFI of 7.63%. `O=C1CN(C(=O)CCC2CCCCC2)C(c2ccc(F)cc2)c2cc(F)ccc2N1` (stereo unspecified) showed an IFI of 5.88%. Work on `Cc1ccc(NC(C)C(=O)Nc2ccc(C#N)cc2)cc1S(=O)(=O)N1CCCCC1` (stereo unspecified) yielded an IFI of 6.25%. Compound `COc1cc(/C=C/C(=O)Nc2ccc3nc(N4CCN(c5ncccn5)CC4)cc(C)c3c2)cc(OC)c1OC` has an IFI of 11.5%. In the case of `CC1CCN(c2ncnc3sc4c(c23)CCC(C)C4)CC1` (stereo unspecified), the IFI is reported as 2.35%. For `COc1ccc(CN2CCc3nc(N4CCCCC4)sc3C2)cc1`, the IFI was 9.72%. `Oc1ccc(-c2ccc3c(c2)OCO3)cc1CNC12CC3CC(CC(C3)C1)C2` gave an IFI of 1.79%. `COc1cccc(-c2ccc(O)c(CN3CCC(Cc4ccccc4)CC3)c2)n1` showed an IFI of 1.92%. In the case of `O=C(Nc1ccc(OC(F)(F)F)cc1)c1cnn2c1NC(c1cccs1)CC2C(F)(F)F` (stereo unspecified), the IFI is reported as 0%. Work on `CC(C)(C)c1ccc(C(=O)C[n+]2cc(-c3ccccc3)n3c2CCC3)cc1` yielded an IFI of 5%. For `O=C(c1cc2n(n1)C(C(F)(F)F)CC(c1ccc3c(c1)OCO3)N2)N1CCN(C(c2ccccc2)c2ccccc2)CC1` (stereo unspecified), the IFI was 1.16%. `Cc1cc(N2CCN(C)CC2)nc2ccc(NC(=O)c3ccc(Br)o3)cc12` showed an IFI of 0%. Work on `CCC(O)CN(c1ccccc1)c1ccccc1` (stereo unspecified) yielded an IFI of 1.83%. In the case of `CCCCCCCn1c(=N)n(CC(O)c2ccc(Cl)c(Cl)c2)c2ccccc21` (stereo unspecified), the IFI is reported as 9.26%. `CN(C)Cc1c(O)ccc2oc(Cc3ccccc3)cc12` gave an IFI of 0.73%. `CCOC(=O)C1=C(C)N=c2sc(=Cc3cccc(OCc4cccc5ccccc45)c3)c(=O)n2C1c1ccc(OC)cc1OC` (stereo unspecified) gave an IFI of 0%. Work on `COc1ccc(N2C(N)=NC(N)=NC2(C)C)cc1` yielded an IFI of 4.54%. With `COc1cc(/C=C\C(=O)Nc2c3c(nn2-c2ccc(F)cc2)CSC3)cc(OC)c1OC` the IFI was 4.71%. With `Oc1ccc(-c2ccnc3cc(Cl)ccc23)cc1CNCC1(O)CCCCC1` the IFI was 2.59%. `CCCn1nc(NS(C)(=O)=O)c2cc3cccc(C)c3nc21` gave an IFI of 0%. `CCOC(=O)C1=C(C)NC2=C(C(=O)C(C(=O)OCC)C(c3ccccc3OC)C2)C1c1cc(OC)c(OC)c(OC)c1` (stereo unspecified) gave an IFI of 4.65%. For `COc1cc(NC(C)CCCN(Cc2ccc(Cl)cc2)C(=O)Nc2ccc(Br)cc2)c2ncccc2c1` (stereo unspecified), the IFI was 3.74%. With `Oc1ccc(-c2ccccc2)cc1CNCCc1ccc(F)cc1` the IFI was 3.42%. In the case of `CC(=O)N1c2ccc(C)cc2C(C)(c2ccccc2)CC1(C)C` (stereo unspecified), the IFI is reported as 0%. In the case of `CCCSCCCNC(=O)c1oc2c(c1C)-c1[nH]ncc1CC2`, the IFI is reported as 0%. For `O=C(CSc1nc(-c2ccccc2Cl)ns1)Nc1ccc2c(c1)OCCO2`, the IFI was 0%. `CC1(C)C2CCC1(C)C(OCC[N+]1(Cc3ccccc3)CCCC1)C2` (stereo unspecified) showed an IFI of 9.62%. In the case of `O=C1c2ccc3c4c(ccc(c24)C(=O)N1CCCCO)C(=O)N(CCCCO)C3=O`, the IFI is reported as 11.3%. For `COc1cc(OC)c(Br)c(-n2c(C(C)N(CCC(C)C)C(=O)c3ccccc3C)nc3ccccc3c2=O)c1` (stereo unspecified), the IFI was 2.8%. `COc1cccc(-c2ccc(O)c(CN(C)CCc3ccc(OC)c(OC)c3)c2)n1` gave an IFI of 2.56%. `CC(Nc1cc(C)ccn1)=C(C#N)C#N` gave an IFI of 7.69%. `Cc1ccnc(NC(c2cccc(Cl)c2Cl)c2ccc3cccnc3c2O)c1` (stereo unspecified) showed an IFI of 7.69%. For `O=C(NC(Cc1ccccc1)c1nnc(SCc2ccc(F)cc2)n1-c1ccc(Cl)cc1Cl)C1CCCCC1` (stereo unspecified), the IFI was 2.08%. Work on `COc1ccc(-c2ccc3c(N)c(C(=O)NCCc4ccccc4)sc3n2)cc1OC` yielded an IFI of 7.27%. Work on `COc1cc(/C=C2/SC(=Nc3ccccc3)NC2=O)ccc1OC(=O)c1ccccc1` yielded an IFI of 1.14%. Compound `COc1cccc(-c2cncc(-c3cncc(OC)c3)n2)c1` has an IFI of 0%. `Cc1cc(C)n(-c2ccc(NC(=O)C3CCN(Cc4cnc(C)s4)CC3)cc2)n1` showed an IFI of 0%. For `COc1ccc(C(NC(=O)COc2ccccc2)c2cc(Cl)c3cccnc3c2O)cc1OC` (stereo unspecified), the IFI was 12.5%. Compound `C=Cc1cc2ccccc2c2cc3c(cc12)C[N+](C)(C)C3` has an IFI of 0%. Work on `CCn1ccnc1CC1COc2ccccc2O1` (stereo unspecified) yielded an IFI of 1.18%. Compound `COc1ccc2nc(C)cc(Nc3cccc(Cl)c3)c2c1` has an IFI of 3.26%. With `COc1ccc(C(c2ccc(N(C)C)cc2)c2ccc(N(C)C)cc2)cc1` the IFI was 13.6%. `CCN(CC)CCN1C(=O)c2ccccc2NC1c1ccc(Cl)cc1` (stereo unspecified) showed an IFI of 3.66%. In the case of `Cc1ccc(-n2c(C)cc(/C=C3\SC(=Nc4ccc(Cl)cc4)NC3=O)c2C)cc1`, the IFI is reported as 5.81%. In the case of `CC[n+]1c(/C=C/c2ccc(C)cc2)ccc2ccccc21`, the IFI is reported as 11.4%. For `CCCCCCCCCC(=O)N(C)CCCNc1ccnc2cc(Cl)ccc12`, the IFI was 3.7%. For `CC1CN(C2CC(=O)N(c3ccccc3)C2=O)CC(C)O1` (stereo unspecified), the IFI was 0%. `Cc1ccc(OCC(=O)Nc2cccc(C(=O)O)c2)c(Br)c1` gave an IFI of 7.69%. In the case of `CON(C)C(=O)c1cccc2ccccc12`, the IFI is reported as 3.25%. `CCCCN(CC(=O)Nc1cc(C(C)(C)C)nn1-c1ccc(Cl)cc1)C(=O)c1ccc(OC)cc1` showed an IFI of 1.92%. For `O=C(COC(c1cccs1)c1cccnc1Cl)N1CCN(C(=O)Nc2ccccc2)CC1` (stereo unspecified), the IFI was 0.971%. `O=C(c1cc2cc(Br)ccc2o1)N1CCc2c([nH]c3ccccc23)C1c1ccc(Cl)cc1` (stereo unspecified) showed an IFI of 0%. Compound `OC1(c2ccc(Br)cc2)CCN(C2CCN(Cc3ccccc3)CC2)CC1` has an IFI of 1.57%. In the case of `COc1ccc(OC)c(C2CC(=O)N3CN(Cc4ccccc4)CSC3=C2C#N)c1` (stereo unspecified), the IFI is reported as 0%. For `O=C1C2C(C(=O)N1c1ccccc1F)C1(c3ccccc3)C(=O)C2(c2ccccc2)C(c2ccccc2)=C1c1ccccc1` (stereo unspecified), the IFI was 0%. In the case of `COc1cc(NC(C)CCCN(Cc2ccc(N(C)C)cc2)S(=O)(=O)c2c(C)cc(C)cc2C)c2ncccc2c1` (stereo unspecified), the IFI is reported as 2.75%.
